This passage reports cAMP reporter score and surface expression score results from the GPR68 mutational scans of Howard et al. (2025).

First the molecules themselves.
B1: GPR68, Q15743 (parent)
chain: MGNITADNSSMSCTIDHTIHQTLAPVVYVTVLVVGFPANCLSLYFGYLQIKARNELGVYLCNLTVADLFYICSLPFWLQYVLQHDNWSHGDLSCQVCGILLYENIYISVGFLCCISVDRYLAVAHPFRFHQFRTLKAAVGVSVVIWAKELLTSIYFLMHEEVIEDENQHRVCFEHYPIQAWQRAINYYRFLVGFLFPICLLLASYQGILRAVRRSHGTQKSRKDQIQRLVLSTVVIFLACFLPYHVLLLVRSVWEASCDFAKGVFNAYHFSLLLTSFNCVADPVLYCFVSETTHRDLARLRGACLAFLTCSRTGRAREAYPLGAPEASGKSGAQGEEPELLTKLHPAFQTPNSPGSGGFPTGRLA

Data set [1] covers variants of B1. Nature of the data set: cAMP reporter score (Enrich2 score, wild type = 0); higher = more signal; HEK293T, FACS bins.
The variants in data set [2] derive from B1. Nature of the data set: surface expression score (Enrich2 score, wild type = 0); higher = more signal; HEK293T, FACS bins.

Scores with a large standard error are left out. Not listed are two conditions whose scores span a narrow range. Names with del lack the residues named; names with ins carry added residues between the positions named. For some of these results: The concentration of ogerin is not given here.

For the variant L101G, the cAMP reporter score is -0.502 in data set [1] (pH 5.5) and -1.64 in data set [1] (pH 6, modulator: ogerin). Moreover, the surface expression score in data set [2] is -0.028.
For L101K, the cAMP reporter score is -0.382 in data set [1] (pH 5.5); -0.941 in data set [1] (pH 6); -0.916 in data set [1] (pH 6.5, modulator: ogerin). In addition, the surface expression score in data set [2] was -0.755.
On to L101Q, for which the cAMP reporter score was -1.91 in data set [1] (pH 5.5); -1.61 in data set [1] (pH 6); -1.46 in data set [1] (pH 6, modulator: ogerin); -1.28 in data set [1] (pH 6.5, modulator: ogerin). Further, in data set [2], the surface expression score is -0.962.
Consider L101Y, for which the cAMP reporter score in data set [1] (pH 5.5) was determined as 0.52; in data set [1] (pH 6.5, modulator: ogerin), 1.77. Moreover, the surface expression score in data set [2] is -1.36.
Regarding L101D, the cAMP reporter score is -0.413 in data set [1] (pH 5.5) and -0.762 in data set [1] (pH 6). In data set [2], the surface expression score is -1.63.
For the variant L101R, the cAMP reporter score in data set [1] (pH 5.5) is -0.532; in data set [1] (pH 6) it was -0.945; in data set [1] (pH 6, modulator: ogerin) it was -2.08; in data set [1] (pH 6.5, modulator: ogerin), -1.45. For the same variant, the surface expression score in data set [2] is -0.988.
In the case of L101W, the cAMP reporter score in data set [1] (pH 5.5) was -1.03; in data set [1] (pH 6), -0.474; in data set [1] (pH 6, modulator: ogerin), -0.989; in data set [1] (pH 6.5, modulator: ogerin) it was -1.23. Also, in data set [2], the surface expression score was -0.115.
Take L101V: the cAMP reporter score was -0.675 in data set [1] (pH 5.5); -0.134 in data set [1] (pH 6); -0.449 in data set [1] (pH 6, modulator: ogerin); -1.64 in data set [1] (pH 6.5, modulator: ogerin). Besides, the surface expression score in data set [2] is -0.023.
With L101N, the cAMP reporter score in data set [1] (pH 5.5) was -1.09; in data set [1] (pH 6, modulator: ogerin), -1.66; in data set [1] (pH 6.5, modulator: ogerin), -1.04.
Take L101A: the cAMP reporter score in data set [1] (pH 5.5) is -0.67; in data set [1] (pH 6), -0.311; in data set [1] (pH 6, modulator: ogerin) it was -0.472; in data set [1] (pH 6.5, modulator: ogerin), -0.644. Moreover, the surface expression score in data set [2] worked out at 0.604.
For L101H, the cAMP reporter score in data set [1] (pH 5.5) was -1.92; in data set [1] (pH 6), -0.311; in data set [1] (pH 6, modulator: ogerin), -0.343; in data set [1] (pH 6.5, modulator: ogerin), -1.62. Besides, the surface expression score in data set [2] was -0.429.
On to L101S, for which the cAMP reporter score in data set [1] (pH 5.5) was -1.22; in data set [1] (pH 6) it was -1.76; in data set [1] (pH 6, modulator: ogerin), -1.58; in data set [1] (pH 6.5, modulator: ogerin), 0.559. Besides, the surface expression score in data set [2] was -0.463.
As to L101P, the cAMP reporter score was -0.402 in data set [1] (pH 5.5); -0.21 in data set [1] (pH 6); -0.545 in data set [1] (pH 6, modulator: ogerin); -0.547 in data set [1] (pH 6.5, modulator: ogerin). Besides, the surface expression score in data set [2] was -0.546.
Regarding L101C, the cAMP reporter score is -0.503 in data set [1] (pH 5.5); -0.616 in data set [1] (pH 6); -2.27 in data set [1] (pH 6, modulator: ogerin); -0.953 in data set [1] (pH 6.5, modulator: ogerin). In addition, in data set [2], the surface expression score is -0.182.
Take L101E: the cAMP reporter score in data set [1] (pH 5.5) is -2.17; in data set [1] (pH 6, modulator: ogerin), -0.75.
Turning to L101_Y102insGSG, the cAMP reporter score in data set [1] (pH 5.5) was -0.406; in data set [1] (pH 6), -1.4; in data set [1] (pH 6.5, modulator: ogerin) it was -2.02. Moreover, in data set [2], the surface expression score is -2.46.
L92del: the cAMP reporter score in data set [1] (pH 5.5) is -1.42; in data set [1] (pH 6), -0.984; in data set [1] (pH 6, modulator: ogerin), -1.45; in data set [1] (pH 6.5, modulator: ogerin), -1.31. Besides, the surface expression score in data set [2] was -1.25.
For the variant Q95_V96insGSG, the cAMP reporter score in data set [1] (pH 5.5) is 0.279; in data set [1] (pH 6, modulator: ogerin), -1.55; in data set [1] (pH 6.5, modulator: ogerin), -0.059. Also, in data set [2], the surface expression score was -2.18.
Regarding I99del, the cAMP reporter score was -1.34 in data set [1] (pH 5.5); -1.14 in data set [1] (pH 6); -0.583 in data set [1] (pH 6.5, modulator: ogerin). Also, the surface expression score in data set [2] is -1.79.
For the variant V96_C97insGS, the cAMP reporter score in data set [1] (pH 5.5) is -2.24; in data set [1] (pH 6) it was -1.22; in data set [1] (pH 6, modulator: ogerin) it was -2.6; in data set [1] (pH 6.5, modulator: ogerin) it was -1.34. Besides, the surface expression score in data set [2] is -2.
Consider C94del, for which the cAMP reporter score was -1.38 in data set [1] (pH 5.5); -0.847 in data set [1] (pH 6); -1.39 in data set [1] (pH 6, modulator: ogerin); -1.28 in data set [1] (pH 6.5, modulator: ogerin). For the same variant, the surface expression score in data set [2] was -2.04.
For L100_Y102del, the cAMP reporter score in data set [1] (pH 5.5) was -1.25; in data set [1] (pH 6), -0.629; in data set [1] (pH 6, modulator: ogerin), -1.87; in data set [1] (pH 6.5, modulator: ogerin), -1.42. Besides, the surface expression score in data set [2] was -1.91.
The corresponding values for L100_L101insGS are -1.28, 0.268, -1.13, -0.59 and -2.34.
As to V96_G98del, the cAMP reporter score in data set [1] (pH 5.5) is -1.04; in data set [1] (pH 6) it was -0.83; in data set [1] (pH 6, modulator: ogerin), -0.325; in data set [1] (pH 6.5, modulator: ogerin), -0.043. Moreover, the surface expression score in data set [2] is -2.21.
The corresponding values for C97_G98del are -1.77, -1.64, -1.64, -1.19 and -2.35.
As to G98_L100del, the cAMP reporter score in data set [1] (pH 5.5) is -1.39; in data set [1] (pH 6), -0.795; in data set [1] (pH 6, modulator: ogerin), -0.63; in data set [1] (pH 6.5, modulator: ogerin), -1.23. Besides, in data set [2], the surface expression score was -2.63.
For L101_Y102insGS, the cAMP reporter score in data set [1] (pH 5.5) was -2.83; in data set [1] (pH 6, modulator: ogerin), -0.24. For the same variant, the surface expression score in data set [2] is -2.14.
As for L92Y, the cAMP reporter score was 0.814 in data set [1] (pH 5.5); -0.492 in data set [1] (pH 6); 0.15 in data set [1] (pH 6, modulator: ogerin); -0.186 in data set [1] (pH 6.5, modulator: ogerin). Also, the surface expression score in data set [2] amounted to 0.853.
With L92H, the cAMP reporter score in data set [1] (pH 5.5) was -0.353; in data set [1] (pH 6), -0.417; in data set [1] (pH 6, modulator: ogerin), -0.461; in data set [1] (pH 6.5, modulator: ogerin), 1.26. The surface expression score in data set [2] is -1.07.
As for L92I, the cAMP reporter score in data set [1] (pH 5.5) is 0.565; in data set [1] (pH 6), -0.637; in data set [1] (pH 6, modulator: ogerin) it was 1.63; in data set [1] (pH 6.5, modulator: ogerin), 0.386. Besides, in data set [2], the surface expression score was determined as 1.9.
The corresponding values for L92V are -0.415, -0.969, -0.685, -0.806 and -0.794.
L92K: the cAMP reporter score in data set [1] (pH 5.5) is 0.352; in data set [1] (pH 6), 0.77; in data set [1] (pH 6, modulator: ogerin), 0.019; in data set [1] (pH 6.5, modulator: ogerin) it was -0.32. For the same variant, in data set [2], the surface expression score is 0.365.
Take L92P: the cAMP reporter score in data set [1] (pH 5.5) was 0.088; in data set [1] (pH 6) it was -0.276; in data set [1] (pH 6, modulator: ogerin), -0.56; in data set [1] (pH 6.5, modulator: ogerin), -0.439. Besides, the surface expression score in data set [2] amounted to 0.193.
